In one assay the target is 1550. As to the kind of experiment: SPR.
The next assay has as its target 1504. The assay can be described thus: SPR. On the technique in general: SPR reads the build-up and loss of mass on a sensor chip optically.

The term Kd denotes the constant that tells how readily two partners part at equilibrium.

B1: reference 3D7 ctCSP peptide (domain or fragment)
chain: not shown
Regarding B1, the Kd was determined as 0.431 nM with 1550 and 0.687 nM with 1504.

These data come from paper PMC8989322 (2022).
